Measured values: the supplement of paper PMC4967469
By IC50 is meant the dose at which the fit gives 50% viability; a fit beyond the top or the lowest dose is shown as a bound at that dose. AUC is the area under the same curve over the 256-fold range up to the top dose, as a fraction: 1 means no effect, lower means more sensitive. For part of these data: The top dose, if marked as inferred, comes from the curve model; the source does not state it. For part of these data: An entry number marks a drug with two screens in the source, which often give different values.

Assays:
Assay in all cases: Viability of human cancer cell lines after 72 h of drug (GDSC screen)
Docetaxel = compound: CC(=O)O[C@@]12CO[C@@H]1C[C@H](O)[C@@]1(C)C(=O)[C@H](O)C3=C(C)[C@@H](OC(=O)[C@H](O)[C@@H](NC(=O)OC(C)(C)C)c4ccccc4)C[C@@](O)([C@@H](OC(=O)c4ccccc4)[C@H]21)C3(C)C [Docetaxel]; settings: top dose 0.0125 µM
Experimental: (§1)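 Human cancer cell lines in 384-well plates, medium with 10% serum, drug for 72 h over a 256-fold dose range (nine 2-fold or five 4-fold steps up to the top dose). Adherent lines were fixed and stained with the nucleic acid dye Syto60, suspension lines read with resazurin; signal relative to control wells, capped at 0 and 100%. One two-parameter sigmoid per drug and line, fitted in a mixed model over all curves with the slope shared within a line.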

AMG-706 = compound: CC1(C)CNc2cc(NC(=O)c3cccnc3NCc3ccncc3)ccc21 [AMG-706]; settings: top dose 2 µM; top dose inferred
Experimental: as §1

Cyclopamine = compound: CC1=C2C[C@H]3[C@@H](CC=C4C[C@@H](O)CC[C@@]43C)[C@@H]2CC[C@]12O[C@@H]1C[C@H](C)CN[C@H]1[C@H]2C [Cyclopamine]; settings: top dose 16 µM; top dose inferred
Experimental: as §1

JNK Inhibitor VIII = compound: CCOc1nc(NC(=O)Cc2cc(OC)ccc2OC)cc(N)c1C#N [JNK Inhibitor VIII]; settings: top dose 10 µM; top dose inferred
Experimental: as §1

NSC-207895 = compound: CN1CCN(c2ccc([N+](=O)[O-])c3no[n+]([O-])c23)CC1 [NSC-207895]; settings: top dose 20 µM; top dose inferred
Experimental: as §1

FTI-277 = compound: COC(=O)[C@H](CCSC)NC(=O)c1ccc(NC[C@@H](N)CS)cc1-c1ccccc1 [FTI-277]; settings: top dose 1.024 µM; top dose inferred
Experimental: as §1

YM155 = compound: COCC[n+]1c2c(n(Cc3cnccn3)c1C)C(=O)c1ccccc1C2=O [YM155]; settings: top dose 5.12 µM
Experimental: as §1

OSI-906 = compound: C[C@]1(O)C[C@@H](c2nc(-c3ccc4ccc(-c5ccccc5)nc4c3)c3c(N)nccn32)C1 [OSI-906]; settings: top dose 2.56 µM; top dose inferred
Experimental: as §1

PHA-665752 = compound: Cc1[nH]c(/C=C2\C(=O)Nc3ccc(S(=O)(=O)Cc4c(Cl)cccc4Cl)cc32)c(C)c1C(=O)N1CCC[C@@H]1CN1CCCC1 [PHA-665752]; settings: top dose 2 µM
Experimental: as §1

SB-715992 = compound: Cc1ccc(C(=O)N(CCCN)[C@@H](c2nc3cc(Cl)ccc3c(=O)n2Cc2ccccc2)C(C)C)cc1 [SB-715992]; settings: top dose 0.128 µM; top dose inferred
Experimental: as §1

JQ1 = compound: Cc1sc2c(c1C)C(c1ccc(Cl)cc1)=N[C@@H](CC(=O)OC(C)(C)C)c1nnc(C)n1-2 [JQ1]
Experimental: as §1

Belinostat = compound: O=C(/C=C/c1cccc(S(=O)(=O)Nc2ccccc2)c1)NO [Belinostat]; settings: top dose 20 µM; top dose inferred
Experimental: as §1

CGP-60474 = compound: OCCCNc1cc(-c2ccnc(Nc3cccc(Cl)c3)n2)ccn1 [CGP-60474]; settings: top dose 0.256 µM; top dose inferred
Experimental: as §1

JNJ-26854165 = compound: c1ccc2c(CCNc3ccc(Nc4ccncc4)cc3)c[nH]c2c1 [JNJ-26854165]; settings: top dose 10 µM
Experimental: as §1

[1] = top dose 1 µM, screen: GDSC drug entry 1218, top dose inferred
[2] = top dose 2.56 µM, screen: GDSC drug entry 163

Q: How did the AUC (Docetaxel) turn out when “LU-139 (small cell lung carcinoma, suspension)” was run?
A: 0.82

Q: What about the IC50 (Docetaxel) of the same cell line?
A: 9.98 nM

Q: What about the AUC (AMG-706) of the same cell line?
A: 0.951

Q: And the IC50 (AMG-706)?
A: > 2000 nM

Q: What about the AUC (Cyclopamine) of the same cell line?
A: 0.961

Q: And the IC50 (Cyclopamine)?
A: > 16000 nM

Q: What about the AUC (JNK Inhibitor VIII) of the same cell line?
A: 0.978

Q: What about the IC50 (JNK Inhibitor VIII) of the same cell line?
A: > 10000 nM

Q: And the AUC (NSC-207895)?
A: 0.759

Q: What about the IC50 (NSC-207895) of the same cell line?
A: 8840 nM

Q: And the AUC (FTI-277)?
A: 0.982

Q: And the IC50 (FTI-277)?
A: > 1020 nM

Q: And the AUC (YM155)?
A: 0.039

Q: What about the IC50 (YM155) of the same cell line?
A: < 20 nM

Q: What about the AUC (OSI-906) of the same cell line?
A: 0.981

Q: What about the IC50 (OSI-906) of the same cell line?
A: > 2560 nM

Q: And the AUC (PHA-665752)?
A: 0.98

Q: And the IC50 (PHA-665752)?
A: > 2000 nM

Q: What about the AUC (SB-715992) of the same cell line?
A: 0.642

Q: And the IC50 (SB-715992)?
A: 22.1 nM

Q: And the AUC (JQ1; [1])?
A: 0.918

Q: And the IC50 (JQ1; [1])?
A: > 1000 nM

Q: And the AUC (JQ1; [2])?
A: 0.803

Q: And the IC50 (JQ1; [2])?
A: 1710 nM

Q: What about the AUC (Belinostat) of the same cell line?
A: 0.361

Q: What about the IC50 (Belinostat) of the same cell line?
A: 463 nM

Q: What about the AUC (CGP-60474) of the same cell line?
A: 0.81

Q: What about the IC50 (CGP-60474) of the same cell line?
A: 184 nM

Q: What about the AUC (JNJ-26854165) of the same cell line?
A: 0.9

Q: And the IC50 (JNJ-26854165)?
A: > 10000 nM

Q: How did the AUC (Docetaxel) turn out when KNS-81-FD (glioma, adherent) was run?
A: 0.752

Q: And the IC50 (Docetaxel)?
A: 5.5 nM

Q: What about the AUC (AMG-706) of the same cell line?
A: 0.98

Q: And the IC50 (AMG-706)?
A: > 2000 nM

Q: What about the AUC (Cyclopamine) of the same cell line?
A: 0.946

Q: And the IC50 (Cyclopamine)?
A: > 16000 nM

Q: What about the AUC (JNK Inhibitor VIII) of the same cell line?
A: 0.978

Q: What about the IC50 (JNK Inhibitor VIII) of the same cell line?
A: > 10000 nM

Q: And the AUC (NSC-207895)?
A: 0.677

Q: And the IC50 (NSC-207895)?
A: 4690 nM

Q: And the AUC (FTI-277)?
A: 0.965

Q: What about the IC50 (FTI-277) of the same cell line?
A: > 1020 nM

Q: What about the AUC (YM155) of the same cell line?
A: 0.042

Q: And the IC50 (YM155)?
A: < 20 nM

Q: What about the AUC (OSI-906) of the same cell line?
A: 0.979

Q: What about the IC50 (OSI-906) of the same cell line?
A: > 2560 nM

Q: What about the AUC (PHA-665752) of the same cell line?
A: 0.936

Q: What about the IC50 (PHA-665752) of the same cell line?
A: > 2000 nM

Q: And the AUC (SB-715992)?
A: 0.971

Q: And the IC50 (SB-715992)?
A: > 128 nM

Q: What about the AUC (JQ1; [1]) of the same cell line?
A: 0.93

Q: What about the IC50 (JQ1; [1]) of the same cell line?
A: > 1000 nM

Q: And the AUC (JQ1; [2])?
A: 0.953

Q: And the IC50 (JQ1; [2])?
A: > 2560 nM

Q: What about the AUC (Belinostat) of the same cell line?
A: 0.468

Q: What about the IC50 (Belinostat) of the same cell line?
A: 994 nM

Q: And the AUC (CGP-60474)?
A: 0.838

Q: What about the IC50 (CGP-60474) of the same cell line?
A: > 256 nM

Q: And the AUC (JNJ-26854165)?
A: 0.857

Q: And the IC50 (JNJ-26854165)?
A: > 10000 nM

Q: What does the source list for GT3TKB (stomach, adherent)?
A: AUC (Docetaxel): 0.523; IC50 (Docetaxel): 0.897 nM; AUC (AMG-706): 0.989; IC50 (AMG-706): > 2000 nM; AUC (Cyclopamine): 0.99; IC50 (Cyclopamine): > 16000 nM; AUC (JNK Inhibitor VIII): 0.982; IC50 (JNK Inhibitor VIII): > 10000 nM; AUC (NSC-207895): 0.857; IC50 (NSC-207895): 13300 nM; AUC (FTI-277): 0.97; IC50 (FTI-277): > 1020 nM; AUC (YM155): 0.019; IC50 (YM155): < 20 nM; AUC (OSI-906): 0.959; IC50 (OSI-906): > 2560 nM; AUC (PHA-665752): 0.99; IC50 (PHA-665752): > 2000 nM; AUC (SB-715992): 0.495; IC50 (SB-715992): 7.79 nM; AUC (JQ1; [1]): 0.976; IC50 (JQ1; [1]): > 1000 nM; AUC (JQ1; [2]): 0.575; IC50 (JQ1; [2]): 250 nM; AUC (Belinostat): 0.563; IC50 (Belinostat): 1820 nM; AUC (CGP-60474): 0.675; IC50 (CGP-60474): 46.1 nM; AUC (JNJ-26854165): 0.911; IC50 (JNJ-26854165): > 10000 nM

Q: Which results are given for KM12 (large intestine, adherent)?
A: AUC (Docetaxel): 0.756; IC50 (Docetaxel): 4.6 nM; AUC (AMG-706): 0.985; IC50 (AMG-706): > 2000 nM; AUC (Cyclopamine): 0.965; IC50 (Cyclopamine): > 16000 nM; AUC (JNK Inhibitor VIII): 0.971; IC50 (JNK Inhibitor VIII): > 10000 nM; AUC (NSC-207895): 0.963; IC50 (NSC-207895): > 20000 nM; AUC (FTI-277): 0.947; IC50 (FTI-277): > 1020 nM; AUC (YM155): 0.185; IC50 (YM155): 32.7 nM; AUC (OSI-906): 0.985; IC50 (OSI-906): > 2560 nM; AUC (PHA-665752): 0.92; IC50 (PHA-665752): > 2000 nM; AUC (SB-715992): 0.9; IC50 (SB-715992): > 128 nM; AUC (JQ1; [1]): 0.984; IC50 (JQ1; [1]): > 1000 nM; AUC (JQ1; [2]): 0.713; IC50 (JQ1; [2]): 677 nM; AUC (Belinostat): 0.455; IC50 (Belinostat): 933 nM; AUC (CGP-60474): 0.81; IC50 (CGP-60474): 149 nM; AUC (JNJ-26854165): 0.929; IC50 (JNJ-26854165): > 10000 nM
